# According to PubChem BioAssay AID488969 (Vanderbilt High Throughput Screening Facility, 2010):
# In all, about 110,000 compounds were measured (“z-score”: median about -0.1, highest 2% from about 2 on). The list shows a part of the results.
# Molecular target: Metabotropic glutamate receptor 8 (Rattus norvegicus) (UniProt P70579)
# Experiment: rat mGluR8 modulators via GIRK flux, primary screen, cell-based, thallium flux, HTS (AID 488969)
# Settings: HEK293 rat mGluR8, GIRK (G protein-gated inwardly rectifying potassium channel) thallium flux, FluoZin2; at 10 µM; stronger effect = higher value; submaximal glutamate (EC20) added with thallium
# Chain of UniProt P70579 (P70579 whole entry, looked up): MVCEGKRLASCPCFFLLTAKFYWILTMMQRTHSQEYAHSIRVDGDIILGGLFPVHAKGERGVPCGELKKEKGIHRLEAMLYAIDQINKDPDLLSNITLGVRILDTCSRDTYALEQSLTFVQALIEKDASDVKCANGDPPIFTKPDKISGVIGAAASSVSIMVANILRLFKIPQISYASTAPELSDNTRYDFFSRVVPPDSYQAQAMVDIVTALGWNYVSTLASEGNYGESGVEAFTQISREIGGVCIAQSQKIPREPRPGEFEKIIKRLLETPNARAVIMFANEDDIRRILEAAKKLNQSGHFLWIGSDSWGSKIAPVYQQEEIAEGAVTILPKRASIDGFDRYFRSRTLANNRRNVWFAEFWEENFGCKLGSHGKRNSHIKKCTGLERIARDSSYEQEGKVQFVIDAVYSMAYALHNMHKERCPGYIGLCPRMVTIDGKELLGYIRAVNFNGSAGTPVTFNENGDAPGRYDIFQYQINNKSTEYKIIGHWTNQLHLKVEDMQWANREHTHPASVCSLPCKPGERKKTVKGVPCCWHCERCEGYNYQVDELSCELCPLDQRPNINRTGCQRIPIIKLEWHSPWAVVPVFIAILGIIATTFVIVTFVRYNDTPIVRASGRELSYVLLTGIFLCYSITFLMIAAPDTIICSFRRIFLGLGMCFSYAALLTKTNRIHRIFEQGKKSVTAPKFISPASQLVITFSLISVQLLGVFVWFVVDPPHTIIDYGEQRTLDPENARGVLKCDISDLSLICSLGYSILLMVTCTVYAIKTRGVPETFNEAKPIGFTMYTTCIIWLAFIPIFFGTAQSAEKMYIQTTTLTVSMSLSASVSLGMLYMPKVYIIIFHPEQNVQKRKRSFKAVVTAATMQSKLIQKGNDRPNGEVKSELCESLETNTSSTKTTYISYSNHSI
row,Structure (SMILES),z-score
1,Cc1cc2c(cc1C)-c1nnnn1C(C)(C)C2,-0.105
2,O=C(Cn1c(=O)sc2ccccc21)N1CCOCC1,0.00724
3,CCOC(=O)/C(C#N)=C/c1cn(CCC(=O)O)nc1-c1ccc(Cl)cc1,-0.502
4,O=C(C(=O)N1CCc2ccccc2C1)N1CCc2ccccc2C1,0.375
5,Cc1ccccc1Nc1nc(N)nc(CN(C)Cc2ccccc2Cl)n1,0.157
6,COc1ccc(SCc2noc(C(=O)NCC3CCCO3)c2C(=O)O)cc1 (centres undefined),-0.127
7,CCCCn1nc2cc(C(=O)NC3CCc4ccccc43)ccc2c1OCC (centres undefined),-0.345
8,CC(NC(=O)NCCCn1ccnc1)(C(F)(F)F)C(F)(F)F,-0.143
9,CCCCSc1nnc(C)c(=O)[nH]1,0.165
10,c1ccc(-n2c(Sc3cnccn3)nnc2-c2cccs2)cc1,0.0971
11,COc1ccccc1/C=C/CN1CCN(c2ccccc2)CC1,0.0222
12,COc1ccc(-c2cc(C3CC3)nc(SCC(=O)c3cccs3)c2C#N)cc1,0.0502
13,Cc1c(NC(=O)c2cnn3c2NC(c2ccccc2)CC3C(F)(F)F)c(=O)n(-c2ccccc2)n1C (centres undefined),-0.13
14,O=C(CN1C(=O)CSC1=O)N1CCCCC1,-0.395
15,CCOCCCNC(=O)N[C@@H](Cc1ccccc1)C(=O)OC,-0.397
16,COc1cc(/C=N/N=C(/N)c2nonc2N)cc(Br)c1OCc1ccccc1C,0.466
17,COc1cccc(C2C(C(=O)c3ccco3)=C(O)C(=O)N2CCN(C)C)c1OC (centres undefined),0.026
18,COc1ccc(-c2c[n+]3c(n2-c2ccccc2)CCCCC3)cc1,0.466
19,O=C(COc1ccc(Cl)cc1)NCCSCc1cccc(Cl)c1,-0.0859
20,COc1ccc(-c2csc(NC(=O)COC(=O)c3ccco3)n2)cc1,-0.243
21,CCCCNc1nnc(SCC(=O)c2c[nH]c3ccccc23)s1,-0.12
22,CC(=O)NC1=NN(C(C)=O)C(C)(c2ccc(Cl)s2)S1 (centres undefined),0.182
23,CC1CC(N(C(=O)c2ccc(Cl)cc2)c2ccccc2)c2ccccc2N1C(=O)c1ccco1 (centres undefined),-0.00825

row,Structure (SMILES),z-score
1,COc1ccc(OC)c(CCNC(=O)CS(=O)(=O)Cc2nc(-c3ccc(C)cc3)oc2C)c1,0.142
2,CCN(CC)S(=O)(=O)c1cc(C(=O)Nc2ccccn2)ccc1C,-0.195
3,COc1ccccc1-n1cnnc1SCC(=O)c1c[nH]c2ccccc12,-0.14
4,O=C(Nc1ccc(N2CCCC2)cc1)c1ccc2ccccc2c1,-0.47
5,Cc1cccc2cc(COC(=O)c3cccnc3)c(=O)[nH]c12,-0.159
6,O=C(Nc1ccc(C(=O)OC[C@@H]2CCCN3CCCC[C@H]23)cc1)c1cccc(Br)c1,0.175
7,O=C(CNS(=O)(=O)c1cccc(C(F)(F)F)c1)Nc1ccccc1F,-0.47
8,CNC(=O)NC(=O)C(OC(=O)c1cccc(S(=O)(=O)N2CCCCC2)c1)c1ccccc1 (centres undefined),0.0137
9,CCOc1ccc(-n2c(O)c(/C=N/NC(=O)C3COc4ccccc4O3)c3ccccc3c2=O)cc1 (centres undefined),-1.36
10,CN(C)S(=O)(=O)N1CCN(S(=O)(=O)c2ccc3ccccc3c2)CC1,0.0868
11,CCOc1cccc(Oc2ncccc2C(=O)/C(C#N)=C/N(C)C)c1,0.546
12,O=C(Nc1ccc2c(c1)OCO2)c1ccc(Br)c(S(=O)(=O)N2CCCC2)c1,-0.548
13,Cc1ccc(NC(=O)CN2C(=O)NC3(CCc4ccccc43)C2=O)cc1Cl (centres undefined),-0.121
14,COc1ccc(OCCSc2nc(N)cc(N)n2)cc1,-0.0713
15,O=S(=O)(c1ccc2ccccc2c1)N(CC(O)CN1CCOCC1)c1ccccc1 (centres undefined),-0.559
16,O=C1c2ccccc2C(=O)N1Cc1cc(-c2ccc(Cl)cc2)no1,0.23
17,CC(C)Nc1nc(NC(C)C)nc(N(C)C#N)n1,-0.0425
18,O=C(NCCCN1CCN(CCCNC(=O)c2ccc(F)cc2)CC1)c1ccc(F)cc1,-0.246
19,CCOC(=O)N1CCC(N2CCN(S(=O)(=O)c3ccc4ccccc4c3)CC2)CC1,-0.303
20,O=C(O)C1Cc2ccccc2CN1C(=O)c1ccccc1 (centres undefined),0.924
21,Cc1onc(-c2ccccc2Cl)c1C(=O)Nc1sc2c(c1C(N)=O)CCC(C)C2 (centres undefined),-0.297
22,c1ccc(CCc2nn3c(-c4ccncc4)nnc3s2)cc1,-0.448
23,O=C(NC1CCCC1)c1ccc2nc[nH]c2c1,0.171

row,Structure (SMILES),z-score
1,O=C(c1ccc(F)cc1)c1c[nH]c(C(=O)NCc2cccnc2)c1,0.368
2,Cc1cc(SCC(=O)c2ccccc2)nc(SCC(=O)c2ccccc2)n1,-0.648
3,COc1ccc(Cl)cc1NC(=O)N1CCN(C2CCCCC2)CC1,0.115
4,Cc1ccc(-c2[nH]nc3c2C(C)C(C#N)=C(N)O3)cc1 (centres undefined),-0.422
5,O=C(N/N=C/c1c(Nc2cccc(C(F)(F)F)c2)nc2ccccn2c1=O)c1ccccc1,-0.0933
6,COc1ccc(CN2C(=O)/C(=C/c3ccncc3)SC2=S)cc1,-0.151
7,CC(=O)c1cccc(NC(=O)c2onc(C)c2Cl)c1,0.062
8,O=C(CN1C(=O)c2ccccc2C1=O)NCC1CCCO1 (centres undefined),-0.00258
9,CCCC(=O)Nc1ccc(NC(=O)c2ccccc2OC)cn1,-0.197
10,COc1ccc(-c2noc(-c3ccccc3F)n2)cc1,0.339
11,CCOc1ccc(C(c2c(C)[nH][nH]c2=O)c2c(C)[nH][nH]c2=O)cc1OC,-0.137
12,CS(=O)(=O)Nc1ccccc1C(=O)NC1CC2CCC1C2 (centres undefined),-0.195
13,COc1ccc(C(=O)Nn2c(C)nnc2-n2nc(C)cc2C)cc1OC,-0.154
14,CCCCC(=O)Nc1ccc(N2CCN(C(=O)CC)CC2)cc1,-0.0426
15,O=C(Nc1ccc(Cl)cc1)[C@@H]1[C@@H]2C(=O)N(c3ccc(Cl)cc3Cl)C(=O)[C@@H]2[C@H]2C=CC=NN21,-0.503
16,COCCCn1c(N)c(-c2nc3ccccc3n2C)c2nc3ccccc3nc21,-0.368
17,CCOC(=O)CCN(Cc1sccc1C)S(=O)(=O)c1ccc(F)cc1,-0.113
18,Cc1ccc(S(=O)(=O)N(Cc2ccccc2)c2ccccc2C(=O)NCc2cccnc2)cc1,-0.305
19,CCOC(=O)CSc1nnc(-c2c[nH]c3ccccc23)n1CC,0.103
20,CC(C)(C)NC(=O)COc1ccc(CNn2nnnc2N)cc1,0.134
21,O=c1c2c(-c3ccc([N+](=O)[O-])cc3)csc2nc2n1CCC2,-0.688
22,O=C1c2ccccc2C(=O)N1CCCc1nc(-c2cccnc2)no1,-0.111
23,COc1ccc(CN(C2CCCC2)S(=O)(=O)c2ccc(-n3cnnn3)c(OC)c2)cc1OC,-0.194
